Out of some 310,000 compounds screened, about 14,000 (4.5%) showed an effect of 50% or more. The effect is printed as a negative number. Some of the results follow.
Target: human ether-à-go-go-related gene (hERG) potassium channel (human, UniProt Q12809)
Assay: primary screen, population patch clamp on CHO cells stably expressing hERG
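Also: peak tail current of the secondary pulse compared with the same well before compound.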

human ether-à-go-go-related gene (hERG) potassium channel, sequence (Q12809 whole entry, looked up): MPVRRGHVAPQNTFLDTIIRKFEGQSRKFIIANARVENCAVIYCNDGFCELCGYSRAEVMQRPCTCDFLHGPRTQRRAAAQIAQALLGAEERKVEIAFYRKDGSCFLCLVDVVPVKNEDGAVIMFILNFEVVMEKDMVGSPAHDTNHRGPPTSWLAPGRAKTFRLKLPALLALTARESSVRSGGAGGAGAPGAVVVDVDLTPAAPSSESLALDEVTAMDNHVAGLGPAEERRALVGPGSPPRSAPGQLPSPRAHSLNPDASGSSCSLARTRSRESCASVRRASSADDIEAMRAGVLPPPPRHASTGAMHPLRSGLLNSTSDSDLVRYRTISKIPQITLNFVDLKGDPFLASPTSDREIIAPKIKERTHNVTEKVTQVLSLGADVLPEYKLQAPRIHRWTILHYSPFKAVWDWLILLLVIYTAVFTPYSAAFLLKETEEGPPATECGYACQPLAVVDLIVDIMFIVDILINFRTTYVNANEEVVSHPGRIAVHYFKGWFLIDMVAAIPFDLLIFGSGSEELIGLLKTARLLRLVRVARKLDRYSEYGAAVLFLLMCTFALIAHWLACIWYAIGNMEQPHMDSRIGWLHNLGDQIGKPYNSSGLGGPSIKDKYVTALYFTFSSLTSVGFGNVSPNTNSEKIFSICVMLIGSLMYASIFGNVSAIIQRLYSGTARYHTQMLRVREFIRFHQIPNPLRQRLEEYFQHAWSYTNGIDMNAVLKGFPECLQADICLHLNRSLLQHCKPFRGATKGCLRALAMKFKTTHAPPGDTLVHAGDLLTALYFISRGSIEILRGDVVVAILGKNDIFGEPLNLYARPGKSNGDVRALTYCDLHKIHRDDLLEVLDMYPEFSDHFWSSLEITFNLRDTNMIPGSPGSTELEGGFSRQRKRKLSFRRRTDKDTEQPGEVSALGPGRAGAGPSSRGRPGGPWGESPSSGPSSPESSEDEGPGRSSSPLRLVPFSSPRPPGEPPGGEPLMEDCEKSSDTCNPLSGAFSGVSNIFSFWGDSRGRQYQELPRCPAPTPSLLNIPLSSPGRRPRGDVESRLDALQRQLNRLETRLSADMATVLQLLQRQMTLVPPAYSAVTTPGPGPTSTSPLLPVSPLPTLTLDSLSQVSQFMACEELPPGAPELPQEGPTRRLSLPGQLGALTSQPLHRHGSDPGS

Row | Structure (SMILES) | hERG current change (%, negative = inhibition) at 10uM [%]
1 | CSc1ccc(C(=O)C2CCCN(C(=O)c3csc(C(C)=O)c3)C2)cc1 (centres unmarked) | -10.4
2 | O=C(Cn1ncn2cccc2c1=O)N1CCCCC1 | 13.4
3 | O=C(NCc1cccc2ccccc12)Nc1ccccc1 | 14.4
4 | C=CCc1cc(C)ccc1OCCOCCN1CCN(C)CC1.O=C(O)C(=O)O | -10.7
5 | O=C(c1cc([N+](=O)[O-])cc([N+](=O)[O-])c1)N1CCCc2ccccc21 | -16.3
6 | CCOC(=O)C1CCCN(C(=O)Nc2c(-c3ccccc3)noc2C)C1 (centres unmarked) | 6.03
7 | Cc1ccc2c(c1)c(C)c(C)n2CC(O)Cn1nc(C)cc1C (centres unmarked) | 1.9
8 | Cc1ccc(C(c2c(C)[nH][nH]c2=O)c2c(C)[nH][nH]c2=O)cc1[N+](=O)[O-] | 1.4
9 | O=C(CSc1ncnc2sc3c(c12)CCC3)Nc1ccccc1C(=O)O | -5.3
10 | CC(=O)NC(Cc1ccc(F)c(F)c1)C(=O)NC1CCN(C(=O)c2ccc(C)cc2)CC1 (centres unmarked) | -12.9
11 | COc1cc(-c2nnc(COC(=O)C3c4ccccc4Oc4ccccc43)o2)cc(OC)c1OC | -6.39
12 | CCOC(=O)c1oc2ccccc2c1CN1CCCCC1.Cl | -55
13 | Cc1c(Cl)cccc1NC(=O)CC1Sc2ccccc2NC1=O (centres unmarked) | -3.01
14 | CC(C)(C)Cc1nnc(NS(=O)(=O)c2ccc(F)cc2)s1 | 0.129
15 | OCCC1CN(Cc2ccc3c(c2)CCO3)CCN1Cc1ccc(F)cc1 (centres unmarked) | -72.9
16 | CCCNC(=O)CCc1c(C)nc2c(c(C)nn2-c2ccccc2)c1C | 0.304
17 | Cc1ccc(C2CCN(C(=S)Nc3cccc(Cl)c3)C2)cc1 (centres unmarked) | 14.4
18 | Cc1ccc(NC(=O)COc2cccc(-n3cnnn3)c2)cc1[N+](=O)[O-] | -0.307
19 | CC1(C)OC(=O)C(=C2CCCN2)C(=O)O1 | 14.5

Row | Structure (SMILES) | hERG current change (%, negative = inhibition) at 10uM [%]
20 | Cc1ccnc(NS(=O)(=O)c2ccc(NS(=O)(=O)c3ccc(Br)cc3)cc2)n1 | 3.66
21 | CC(=O)Nc1cc(C(=O)c2ccccc2)ccc1N1CCOCC1 | -7.94
22 | CC1(C)CC(=O)C=C(N=CC2=C(O)CC(C)(C)CC2=O)C1 | 3.3
23 | O=C(CSc1nc(-c2ccccc2)c(-c2ccccc2)[nH]1)Nc1nccs1 | -6.71
24 | Cc1cc(=O)n(C)c2ccccc12 | 17.9
25 | CC(C)Oc1ccc(CNC(=S)Nc2ccccc2)cc1Cl | 8.95
26 | O=C(CN1C(=O)COc2ccccc21)NCCN1CCOCC1 | 11.3
27 | COc1ccc(CN(CCC(c2ccco2)C(C)C)C(C)=O)cc1OC (centres unmarked) | 0.825
28 | O=[N+]([O-])c1cc(S(=O)(=O)Nc2ccccc2)ccc1-n1nnc2ccccc21 | -4.1
29 | CCCCCCCCCCCCS[C@H]1CS(=O)(=O)C[C@@H]1O | 0.749
30 | C#CCCOC(=O)N1C2=NC(C(=O)OC)=C(C(=O)OC)[C@@H]3N(C)c4ccccc4[C@]23C[C@H]1CO | -1.23
31 | O=C(CSc1nc(-c2ccco2)cc(C(F)(F)F)n1)NN1CCOCC1 | 12.8
32 | Nc1cc(C(=O)OCC(=O)Nc2ccc(N3CCOCC3)cc2)ccc1Cl | -4.47
33 | CC(C)(C)c1ccccc1OCCOCCN1CCCCCC1.O=C(O)C(=O)O | -39.1
34 | C=CCOC(=O)C1=C[C@@H](c2ccccc2)C[C@@H](OCc2ccc(CO)cc2)O1 | -11.9
35 | COc1ccc(/C=N/NC(=O)CCn2nc(C)cc2C)cc1 | -5.38
36 | Cc1ccc(CNC(=O)COC(=O)c2cncc(Br)c2)cc1 | 10
37 | COc1cccc(NC(=O)CNC(=O)c2ccc(C)o2)c1 | 6.41
38 | CC(C)(C)c1cc(C(=O)NNC(=O)Nc2ccccc2)n(Cc2ccccc2)n1 | 11.1

Row | Structure (SMILES) | hERG current change (%, negative = inhibition) at 10uM [%]
39 | O=C(CCN1C(=O)/C(=C\C=C\c2ccccc2)SC1=S)Nc1cccc(C(=O)O)c1 | 13.6
40 | O=C(Nc1ccc([N+](=O)[O-])cc1)c1cc(-c2ccccn2)nc2c(Cl)cccc12 | 33
41 | O=C(COc1ccc2c(c1)oc(=O)c1ccccc12)N[C@@H](Cc1ccccc1)C(=O)O | -1.31
42 | O=C1CCCCC1Sc1ccc(Cl)cc1[N+](=O)[O-] (centres unmarked) | 25.9
43 | COc1ccc(/C(C)=N/OC/C(O)=C(\C#N)c2nc3ccccc3[nH]2)cc1 | 13
44 | COCCCNc1oc(-c2cccs2)nc1S(=O)(=O)c1ccc(C)cc1 | -15.2
45 | O=C(O)CSc1nc2c(c(=O)[nH]1)CCCC2 | 21.7
46 | CCn1c(C)c(C)c2cc(C(=O)N3CCc4ccccc4C3)ccc21 | -8.3
47 | O=C(C1=C[C@H](c2ccc3c(c2)OCO3)C[C@H](OCCCCO)O1)N1CCN(Cc2ccccc2)CC1 | -62.8
48 | Cc1ccccc1NC(=O)CN(C)S(=O)(=O)c1cccs1 | 2.52
49 | O=C(Nc1cccc(F)c1)/C(=C\c1cccnc1)NC(=O)c1ccco1 | -22.4
50 | CC(C)c1cccc(C(C)C)c1NC(=O)CCl | 5.87
51 | O=c1[nH]c(CSc2ncn[nH]2)nc2ccccc12 | 19.7
52 | Cc1cc(C)c2nc(Cl)c(C3NC(=O)c4ccccc4N3)cc2c1 (centres unmarked) | 10
53 | O=C(CSc1nnc(CN2CCOCC2)n1-c1ccc(Cl)cc1)Nc1ccc2c(c1)OCO2 | -9.87
54 | Cc1ccc(C)c(CN2CCC(CNC(=O)Nc3cccc(Cl)c3C)CC2)c1 | -43.1
55 | O=C(Nc1nn[nH]n1)c1cccc(Oc2ccccc2)c1 | 15.3
56 | COC(=O)c1cccc(C(=O)N2CCCC(Nc3ccc(C)c(C)c3)C2)c1 (centres unmarked) | -5.33

Reference: article PMC4336329 (PLoS ONE, 2015)
